Primed or numbered codes have the meaning given here. Where no end group is shown, it is not given here. [ ]: non-standard residue; d: D form. pS = N[C@@H](COP(=O)(O)O)C(=O)O; Biotin′ = not defined here
Legend:
pSAKLDEESILKQ-Biotin = target: T1, pSAKLDEESILKQ-Biotin; experiment: Octet (BLI), fixed reagent concentration;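 note: octet binding of candidate PTM-specific affinity reagents, each at one fixed concentration, to biotinylated phospho-Thr or phospho-Ser peptides, with unmodified biotinylated peptides serving as controls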
T1 peptide: [pS]AKLDEESILKQ-{Biotin′}

TAKLDEESILKQ-Biotin = target: T2, TAKLDEESILKQ-Biotin; experiment: Octet (BLI), fixed reagent concentration;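 note: octet binding of candidate PTM-specific affinity reagents, each at one fixed concentration, to biotinylated phospho-Thr or phospho-Ser peptides, with unmodified biotinylated peptides serving as controls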
T2 peptide: TAKLDEESILKQ-{Biotin′}

B1: PM16 (Human/PLK1) (other)
chain: not shown
pSAKLDEESILKQ-Biotin
  Octet binding assay response: 0.6
TAKLDEESILKQ-Biotin
  Octet binding assay response: 0.5

Source: patent US20250147035A1 (QUANTUM SI, published 2025)
